Measurements from the supplement of paper PMC11417369.
This is one part of the list.

system: PfAP2-HC AP2 domain (GST-tagged); experiment: gcPBM binding intensity (ln(normalized median fluorescence intensity)); higher = stronger DNA binding
In short: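 DNA-binding domains from P. falciparum, fused to GST and produced in E. coli, were put on an Agilent 4 × 180k double-stranded probe array for 1 h in 1× PBS holding 1% milk, 0.2 mg/ml BSA, 0.5% salmon testes DNA and 0.03% Triton X-100. Probes were primer-extended, 36 bp long and drawn from intergenic genomic regions, with negative controls included. After Alexa488 anti-GST antibody detection and a 488 nm scan, binding intensity was set as the highest Masliner-normalised natural-log median intensity across replicate spots of either probe orientation.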

Row | Sequence | gcPBM binding intensity (ln)
1 | TGTTTAAGTGTTTTTAGTACTTATAAAAATATTATC [XGTACX_site7379] | 9.39
2 | TGATGATATAAAAACACACACATATAACATAATACT [CACACA_site6687] | 10.5
3 | TTATTATATATAAGTAGTACAAACAATTAAGAGATA [XGTACX_site4009] | 9.87
4 | TTTCTAATATATAAAGTGCAATACCATTCAGAGTTA | 9.5
5 | ATTGTCTTTTAATAGTGTACTTATTTTAAATATTGC [XGTACX_site8517] | 9.71
6 | TTTTATAGAGTGTATACATGCAATACCACATAAAAT [TGCATGCA_site476] | 9.57
7 | ATATGGAAGAATTAAAGTACTTAAAAAAATGTCAGT [XGTACX_site6837] | 9.83
8 | AAGAAAATAAAATAAAATAAAATAAAATAAAAATAT [TGCATGCA_negctrl_site493] | 9.71
9 | TATAATTTATAAGTAGTGCATTTCTTTTCATTTTTA | 9.5
10 | TAACTATATTTTTACTGTACAAAAAAATTAAATAAT [XGTACX_site1765] | 9.4
11 | ATATTAATTCTACATTGTACACATGAAAAAATATAA [XGTACX_site8759] | 9.51
12 | AAAACACAAAAAAAATGTACACATATATATATATAT [XGTACX_site8509] | 10.1
13 | CTAAGAAAAAATAAAGCACACAAATATTTTAAAAAC [CACACA_site9094] | 9.93
14 | CATTATGTCGTAAATACACACATACAGATACATACA [CACACA_site4880] | 10
15 | AAATTAAATAAATTTACACACTAAAAATTACAGATA [CACACA_site4722] | 9.75
16 | GTTATATATAATAATTGTACAAAATTAAATATAACT [XGTACX_site4189] | 9.51
17 | TTTTTATTTGGTTGTGTACACATATATATATATATA [CACACA_site5844] | 9.84
18 | AAAAAACACCCACATACACACAAAAATGTTATAAAT [CACACA_site81] | 10.3
19 | AATAAATTATGAACGGTGCAGGAAAAATTGTAACAT | 9.87

Row | Sequence | gcPBM binding intensity (ln)
20 | TAGATTATTTTATTTAGTACATAAAAAAGTAAGACC [XGTACX_site7889] | 9.65
21 | CAAAAAAACAAACACACACACACACCGATATATATA [CACACA_site9218] | 10.5
22 | AAACATAAGGGACACACACACATATATATATATATA [CACACA_site5920] | 10.3
23 | TGAAGTGCAAAATACTGTACGTAATGTGCTTGTTAC [XGTACX_site4512] | 9.71
24 | AAAAAAAAATGTCATGGTACACAATTTTTTCTTTTT [XGTACX_site4505] | 9.76
25 | TAAAGTAAAACAAGGTAAGGTTTTTCTTTTTCTTTT [CACACA_negctrl_site1271] | 9.35
26 | AAAAAGAATAAATAAATATAAATAAATAAATATATA [GTGCAC_negctrl_site336] | 9.61
27 | ACATATAGAAGTATCTATAAACAGTGATAGCATTTT [CACACA_negctrl_site1122] | 9.69
28 | CAATCTTTTACGAATACACACACATAAAGAAAAAAA [CACACA_site8367] | 9.93
29 | TTAAATAAATAAAAATGTACATGCATATATAAATAT [XGTACX_site8908] | 9.75
30 | AATTTTTTATATGTCACACATTTGTTATTATTATTA [CACACA_site4197] | 9.88
31 | GAGTAAATAAATAAATGTACATATATATATATTATC [XGTACX_site8466] | 9.74
32 | ATACATAAATATTGATGTACTCATTTAATATATTAT [XGTACX_site3992] | 9.61
33 | AATATATATATATATATATATTTTTGTTAGAATATG [XGTACX_negctrl_site58] | 9.46
34 | TATAATAAATATTAACGTACTCATATATATATATAT [XGTACX_site3871] | 9.61
35 | GCAAGGAAATAATTGATAATATATATATATATATAT [GTGCAC_negctrl_site400] | 9.42
36 | AGGCTACGAATAGAATGTACCCGAAATAAGGAATAT [XGTACX_site6012] | 9.5
37 | TATGTAAATCTCTTAAGAATTCGCTATATCTCTTTT [CACACA_negctrl_site1180] | 9.54
38 | ATATAAGCGTATACATGTACATATATATCTTTGTAA [XGTACX_site2742] | 9.69

Row | Sequence | gcPBM binding intensity (ln)
39 | CTAAAATACGGACACACACACACATATATATATATA [CACACA_site6138] | 11.4
40 | ATTGTATATAAATGAGTGCATACTATGTTGTTCTTA [GTGCAC_site9678] | 9.72
41 | ATTATCTCCGCCATGTGGACACATATAAGACATTTT [XGTACX_site2889] | 9.8
42 | AAAAAAAAAAAAAACACACACACAAAAAAAAATATA [CACACA_site1104] | 11.3
43 | AAATTAGAAATACCTACACACTTATCAAAATAAATT [CACACA_site7132] | 9.87
44 | ATAATTATGAAGCATACATGCATGTCCTGGCTTAAA [TGCATGCA_site491] | 9.51
45 | AAAATATGTAGACACATACACACATATATATATATA [CACACA_site1221] | 9.89
46 | TTTTTTTTTTCAAATGCATGCAAAAAAAAAAAAATA [TGCATGCA_site945] | 9.04
47 | TATATGTATGTTTGTTTGTTTGTATTTTTTAAGGTA [XGTACX_negctrl_site619] | 9.96
48 | TTTTCTTTTTCCAAAAGTACGTAATTTAAACATTTT [XGTACX_site2066] | 9.49
49 | ATCTAAATTTTTCCATGTACATATACTTTTATGCAT [XGTACX_site2683] | 9.82
50 | TTATAATATGGATACACACACATATATAAATATATA [CACACA_site5314] | 9.96
51 | AAAAAATAAATAAATACACACAAATCTATATTTATA [CACACA_site7243] | 9.81
52 | AATCACCAAATATGTACACACCTTAACATGTTTATA [CACACA_site5180] | 9.98
53 | ATTATTCATTTATGTAGTACATTTTAATACATTTAA [XGTACX_site3599] | 9.66
54 | AAGAAAAATTTAAACTGTACTTGTTTTCCAATGAAC [XGTACX_site4443] | 9.44
55 | AAAAAAAAAAAAGTTACACACAAATAAAATATTTGG [CACACA_site694] | 9.74
56 | ATAAAAAAAAATAAATGTACAAATTAACAAAATAAT [XGTACX_site5048] | 9.91
57 | TAATATTTACATATTACACACACGTATTATTAAATA [CACACA_site6340] | 9.75
